These are yes or no findings as the source states them, for the method shown. For some of these results: In cells and extracts the contact can be indirect. Some binding calls cover weakened binding; strength is not graded here. Where a sequence is shown, tags or fusion partners need not be part of it.
T1: His6-IraM (E. coli) (UniProt P75987)
T1 sequence: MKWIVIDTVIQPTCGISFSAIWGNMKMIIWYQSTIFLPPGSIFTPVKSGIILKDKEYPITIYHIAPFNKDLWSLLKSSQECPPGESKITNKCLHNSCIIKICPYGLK

T2: His6-IraP (E. coli) (UniProt P0AAN9)
T2 sequence: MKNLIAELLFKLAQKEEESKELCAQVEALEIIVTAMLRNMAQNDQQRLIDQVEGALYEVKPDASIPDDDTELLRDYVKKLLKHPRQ

T3: His10-tagged IraD (E. coli) (UniProt P39375)
T3 sequence: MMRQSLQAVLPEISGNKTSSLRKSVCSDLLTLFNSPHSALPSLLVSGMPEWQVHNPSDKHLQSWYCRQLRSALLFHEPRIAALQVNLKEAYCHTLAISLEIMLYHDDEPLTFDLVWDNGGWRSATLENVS


Legend:
His6-IraM (E. coli) [1] = molecular target: T1, His6-IraM (E. coli); test: pull-down; soluble lysates of BL21(DE3) codon+ cells overexpressing untagged RssB (full-length wild type or mutant, or single domains) with or without His6-IraM or His6-IraP; extraction buffer (20 mM Tris-HCl pH 7.9, 500 mM NaCl, 10% glycerol, 10 mM imidazole, 1% Triton X-100); Ni-NTA agarose, 30 min at 4°C; eluted with imidazole; immunoblotting
His6-IraM (E. coli) [2] = molecular target: T1, His6-IraM (E. coli); test: pull-down; in trans binding: soluble lysate with His6-IraP or His6-IraM (with or without RssBC) supplemented with 250 μg of RssBN; Ni-NTA agarose, 30 min at 4°C; eluted with imidazole; only the binder purified
His6-IraP (E. coli) = molecular target: T2, His6-IraP (E. coli); test: pull-down; soluble lysates of BL21(DE3) codon+ cells overexpressing untagged RssB (full-length wild type or mutant, or single domains) with or without His6-IraM or His6-IraP; extraction buffer (20 mM Tris-HCl pH 7.9, 500 mM NaCl, 10% glycerol, 10 mM imidazole, 1% Triton X-100); Ni-NTA agarose, 30 min at 4°C; eluted with imidazole; immunoblotting
[3] = molecular target: T3, His10-tagged IraD (E. coli); test: pull-down; purified His10-tagged IraD immobilised on Ni-NTA agarose beads; purified untagged RssB, RssBN or RssBC added; washed, eluted with imidazole; SDS-PAGE, CBB; both purified

binding (His6-IraM (E. coli) [1]) | binding (His6-IraM (E. coli) [2]) | binding (His6-IraP (E. coli)) | binding [3] | Binder
binds | – | – | – | RssBN (residues 1-129), untagged, overexpressed in lysate (domain or fragment, UniProt P0AEV1 1-129) MTQPLVGKQILIVEDEQVFRSLLDSWFSSLGATTVLAADGVDALELLGGFTPDLMICDIAMPRMNGLKLLEHIRNRGDQTPVLVISATENMADIAKALRLGVEDVLLKPVKDLNRLREMVFACLYPSMF
– | binds | – | – | RssBN, N-terminal domain of RssB (residues 1-129), untagged, purified (domain or fragment, UniProt P0AEV1 1-129) MTQPLVGKQILIVEDEQVFRSLLDSWFSSLGATTVLAADGVDALELLGGFTPDLMICDIAMPRMNGLKLLEHIRNRGDQTPVLVISATENMADIAKALRLGVEDVLLKPVKDLNRLREMVFACLYPSMF
binds | – | binds | – | RssBC (residues 131-337), untagged, overexpressed in lysate (domain or fragment, UniProt P0AEV1 131-337) SRVEEEERLFRDWDAMVDNPAAAAKLLQELQPPVQQVISHCRVNYRQLVAADKPGLVLDIAALSENDLAFYCLDVTRAGHNGVLAALLLRALFNGLLQEQLAHQNQRLPELGALLKQVNHLLRQANLPGQFPLLVGYYHRELKNLILVSAGLNATLNTGEHQVQISNGVPLGTLGNAYLNQLSQRCDAWQCQIWGTGGRLRLMLSAE
– | – | – | no binding | RssBC, C-terminal domain of RssB (residues 131-337), untagged, purified (domain or fragment, UniProt P0AEV1 131-337) SRVEEEERLFRDWDAMVDNPAAAAKLLQELQPPVQQVISHCRVNYRQLVAADKPGLVLDIAALSENDLAFYCLDVTRAGHNGVLAALLLRALFNGLLQEQLAHQNQRLPELGALLKQVNHLLRQANLPGQFPLLVGYYHRELKNLILVSAGLNATLNTGEHQVQISNGVPLGTLGNAYLNQLSQRCDAWQCQIWGTGGRLRLMLSAE
binds | – | binds | – | RssB, full-length, untagged, overexpressed in lysate (protein, UniProt P0AEV1 1-337) MTQPLVGKQILIVEDEQVFRSLLDSWFSSLGATTVLAADGVDALELLGGFTPDLMICDIAMPRMNGLKLLEHIRNRGDQTPVLVISATENMADIAKALRLGVEDVLLKPVKDLNRLREMVFACLYPSMFNSRVEEEERLFRDWDAMVDNPAAAAKLLQELQPPVQQVISHCRVNYRQLVAADKPGLVLDIAALSENDLAFYCLDVTRAGHNGVLAALLLRALFNGLLQEQLAHQNQRLPELGALLKQVNHLLRQANLPGQFPLLVGYYHRELKNLILVSAGLNATLNTGEHQVQISNGVPLGTLGNAYLNQLSQRCDAWQCQIWGTGGRLRLMLSAE

From publication PMC4428439
